Measured values from PubChem BioAssay AID504332 (National Center for Advancing Translational Sciences (NCATS), 2011).
Out of some 350,000 compounds screened, about 31,000 (8.9%) were called active. The inconclusive results got no clear call from the source; some entries with a clear call stand among them for comparison. The call rests on the fitted dose curve; in most records, active means well fitted inhibition curve with a large enough effect; inconclusive means small, poorly fitted or top-dose-only effect; inactive means no such curve, though single readings can be large or run the other way. Where the call is inconclusive, the potency comes from a doubtful curve fit.

target: Histone-lysine N-methyltransferase EHMT2 (Homo sapiens) (UniProt Q96KQ7); assay: qHTS Assay for Inhibitors of Histone Lysine Methyltransferase G9a; settings: G9a H3K9 monomethylation, AlphaScreen, 2 h; activity, negative = inhibition: at 59 µM (top of the series) unless noted; further: nearly all actives have a fitted effect of over 75% in size
Method in brief: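 Compounds were preincubated with 20 nM G9a for 15 min, after which biotinylated H3K9 peptide (500 nM) and SAM (20 uM) started a 2 h room-temperature reaction. Monomethylated product was quantified by antibody-based AlphaScreen chemiluminescence.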
On the % scale 0 is the no-effect control and ±100 the full control effect; potency means the concentration at half of the fitted maximal effect; tags describe the fitted curve by direction and shape.

Chain of UniProt Q96KQ7 (Q96KQ7 whole entry, looked up): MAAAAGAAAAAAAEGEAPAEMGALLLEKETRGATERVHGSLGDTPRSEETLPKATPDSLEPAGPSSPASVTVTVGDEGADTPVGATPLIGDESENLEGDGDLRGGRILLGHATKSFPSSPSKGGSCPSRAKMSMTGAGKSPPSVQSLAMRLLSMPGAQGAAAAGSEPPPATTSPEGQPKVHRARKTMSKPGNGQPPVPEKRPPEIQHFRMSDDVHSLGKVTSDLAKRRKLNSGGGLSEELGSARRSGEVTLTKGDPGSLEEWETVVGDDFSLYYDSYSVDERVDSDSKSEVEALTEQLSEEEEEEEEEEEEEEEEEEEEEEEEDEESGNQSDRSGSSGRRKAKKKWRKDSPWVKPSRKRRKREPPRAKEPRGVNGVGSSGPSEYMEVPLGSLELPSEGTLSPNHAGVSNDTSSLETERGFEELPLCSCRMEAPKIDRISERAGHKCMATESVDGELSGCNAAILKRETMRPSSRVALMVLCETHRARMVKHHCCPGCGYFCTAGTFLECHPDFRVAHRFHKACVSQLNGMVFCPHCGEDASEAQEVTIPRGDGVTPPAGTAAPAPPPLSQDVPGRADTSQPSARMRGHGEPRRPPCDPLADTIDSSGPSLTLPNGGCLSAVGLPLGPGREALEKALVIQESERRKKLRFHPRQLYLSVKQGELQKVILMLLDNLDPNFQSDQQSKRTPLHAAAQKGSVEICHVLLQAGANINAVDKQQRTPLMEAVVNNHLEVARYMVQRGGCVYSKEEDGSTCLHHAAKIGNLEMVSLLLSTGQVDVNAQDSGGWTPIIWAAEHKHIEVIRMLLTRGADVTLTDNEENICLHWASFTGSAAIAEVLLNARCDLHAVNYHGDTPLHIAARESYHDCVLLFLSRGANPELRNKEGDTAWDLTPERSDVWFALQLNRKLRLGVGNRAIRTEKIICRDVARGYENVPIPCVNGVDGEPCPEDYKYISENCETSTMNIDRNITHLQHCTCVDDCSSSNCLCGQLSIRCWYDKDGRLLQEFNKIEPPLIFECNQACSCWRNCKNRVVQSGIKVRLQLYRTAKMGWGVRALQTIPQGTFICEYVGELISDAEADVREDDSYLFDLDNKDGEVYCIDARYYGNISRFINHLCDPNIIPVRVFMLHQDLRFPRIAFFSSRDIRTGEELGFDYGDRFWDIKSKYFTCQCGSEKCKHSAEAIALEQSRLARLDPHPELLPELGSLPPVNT

| Compound | Potency | activity, negative = inhibition |
| --- | --- | --- |
| Cc1cc(C)c(NC(=O)c2c[nH]c(=S)n2-c2ccc(F)cc2)c(C)c1 | active: 2.82 µM | – |
| CC1(C)OC(C)(C)/C(=C/Nc2ccc(O)cc2)C1=O | active: 8.91 µM | – |
| CCc1nc2ccccc2n1CCCCOc1ccccc1C | inactive | – |
| O=C(CSc1nnc(Cc2ccccc2)n1-c1ccccc1)NNC(=O)Cc1ccccc1 | inactive | – |
| Cc1cc(NC(=O)CSc2nc3c(C)cccc3cc2C#N)no1 | inconclusive: 79.4 µM [inhibitor, single point] | – |
| CCCCn1c(N)c(N(CCC(C)C)C(=O)CSc2nnc(Nc3ccccc3)s2)c(=O)[nH]c1=O | inconclusive: 44.7 µM [inhibitor, partial curve, poor fit] | – |
| COc1ccc(NC(=O)CCN2C(=O)c3ccccc3C2=O)c(OC)c1 | inactive | – |
| CN1CCN(c2ccc([N+](=O)[O-])cc2C(=O)N2CCCCC2)CC1 | inactive | – |
| CC(C)(C)c1nnc2sc(SCC(=O)c3cccs3)nn2c1=O | inconclusive: 39.8 µM [inhibitor, partial curve, poor fit] | – |
| CCOc1ccc(CNC(=O)C2CCCN(S(=O)(=O)c3ccc4c(c3)CCCC(=O)N4)C2)cc1 (stereo not given) | inactive | – |
| Cc1cccc(-c2nc(SCC(=O)Nc3cccc(C(F)(F)F)c3)n3[nH]c(=O)cc3n2)c1 | inactive | – |
| CC(Cc1nnc(N)s1)c1ccccc1 (stereo not given) | active: 31.6 µM | – |
| COc1ccccc1N1CCN(/N=C/c2c(C)nn(-c3ccccc3)c2C)CC1 | inconclusive: 56.2 µM [inhibitor, partial curve, poor fit] | – |
| O=C(/C=C\c1ccco1)Nc1nc(-c2ccc3ccccc3c2)cs1 | active: 50.1 µM | – |
| Cc1ccc(OCc2nc(-c3ccc(C(=O)N4CCN(c5ccc(Cl)cc5)CC4)cc3)oc2C)cc1 | inconclusive: 28.2 µM [inhibitor, partial curve, poor fit] | – |
| CCCCC[n+]1ccn(C2=C([O-])c3ccccc3C(=O)/C2=N\S(=O)(=O)c2ccc(Br)cc2)c1 | inconclusive: 50.1 µM [inhibitor, partial curve] | – |
| CC(C)N(C(C)C)S(=O)(=O)c1ccc(NC(=O)c2cnccn2)cc1 | – | inactive: -2% [at 0.501 µM] |
| COC(=O)c1c(-c2ccccc2)csc1NC1=NS(=O)(=O)c2ccccc21 | inconclusive: 2 µM [inhibitor, partial curve, poor fit] | – |
| O=C(O)c1nn2c(c1Br)NC(c1ccccc1)CC2C(F)(F)F (stereo not given) | inconclusive: 6.31 µM [inhibitor, single point] | – |
| O=C(CN1CCN(Cc2ccccc2)CC1)Nc1ccc2c(c1)CCC2 | inconclusive: 70.8 µM [inhibitor, partial curve, poor fit] | – |
| Cc1cccc2sc(N(CCN(C)C)C(=O)C3CCN(S(=O)(=O)c4cccs4)CC3)nc12 | active: 31.6 µM | – |
| COCCCN=C1NN=C(c2cc(C)n(-c3ccccc3F)c2C)CS1 | active: 50.1 µM | – |
| Cc1cccc(/C(N)=N/OC(=O)CCCc2ccccc2)c1 | inactive | – |

| Compound | Potency | activity, negative = inhibition |
| --- | --- | --- |
| COc1ccc(C(=O)C2CCCN(C(=O)c3cccc(N(C)C)c3)C2)cc1OC (stereo not given) | inconclusive: 79.4 µM [inhibitor, single point] | – |
| CC(=O)Nc1ccccc1-c1nc2ccc(C(=O)N3CCN(c4cccc(C)c4)C(C)C3)cc2[nH]c1=O (stereo not given) | inconclusive: 89.1 µM [inhibitor, single point] | – |
| CCOC(=O)C1=C(CN2CCN(CC)CC2)NC(=O)NC1c1ccc(Cl)cc1 (stereo not given) | inactive | – |
| CC(C)c1nc(N2CCOCC2)c(C#N)c2c1COC(C)(C)C2 | inactive | – |
| COc1ccc(NC(=O)/C(C#N)=C/c2cc(C)n(-c3ccc(N4CCOCC4)c([N+](=O)[O-])c3)c2C)cc1 | inconclusive: 79.4 µM [inhibitor, single point] | – |
| CCOC(=O)c1scc(-c2ccc(C)cc2)c1S(=O)(=O)Nc1cc(Cl)ccc1OC | inactive | – |
| N#C/C(=C/c1cc[nH]c1)C(N)=S | inconclusive: 39.8 µM [inhibitor, single point] | – |
| CCn1c(SCC(=O)c2ccc([N+](=O)[O-])cc2)nnc1-c1ccc(Cl)cc1 | inconclusive: 25.1 µM [inhibitor, partial curve] | – |
| CC1=CC(C)C(C(=O)O)C(C(=O)O)C1 (stereo not given) | inconclusive: 89.1 µM [inhibitor, single point] | – |
| Cc1nn(Cc2ccccc2Cl)c(C)c1C(=O)NCC(c1cccs1)N1CCOCC1 (stereo not given) | inactive | – |
| COc1ccc(CCNCC(=O)Nc2ccc(OC(F)F)cc2)cc1 | inactive | – |
| CCOC(=O)c1cc2nc(-c3ccccc3)cc(C)n2n1 | active: 44.7 µM | – |
| O=C(CC1N=C2c3ccccc3N=C(SCc3ccc(F)cc3)N2C1=O)NCc1cccs1 (stereo not given) | inactive | – |
| COc1ccccc1NS(=O)(=O)c1ccc(O)c(C(=O)OCC(=O)c2ccc(Cl)cc2Cl)c1 | inconclusive: 50.1 µM [inhibitor, partial curve, poor fit] | – |
| O=C(NCCN1CCCCCC1)c1ccc(CS(=O)(=O)c2ccc(Br)cc2)o1 | inconclusive: 79.4 µM [inhibitor, single point] | – |
| CC(C)Cn1nc(NC(=O)c2ccco2)c2cc3ccccc3nc21 | inconclusive: 89.1 µM [inhibitor, single point] | – |
| CCOc1ccc(NC(=O)c2cc(S(=O)(=O)NC3CCCC3)ccc2F)cc1 | inactive | – |
| CCn1c(Cc2cccn2C)nnc1SCC(=O)c1ccc(C)cc1 | inconclusive: 31.6 µM [inhibitor, single point] | – |
| COc1ccc(N2CCCn3c2nc2c3c(=O)n(Cc3ccc(F)cc3)c(=O)n2C)c(OC)c1 | inconclusive: 2.51 µM [inhibitor, partial curve, poor fit] | – |
| O=C(c1ccc(Cl)cc1)N1CCN(c2ccc([N+](=O)[O-])c3ncccc23)CC1 | inconclusive: 39.8 µM [inhibitor, single point] | – |
| Cc1ccc(CN(C(=O)COc2cccc(C)c2C)C2CCS(=O)(=O)C2)o1 (stereo not given) | inconclusive: 5.01 µM [inhibitor, partial curve, poor fit] | – |
| CCCNC(=O)Nc1ccc(C)cc1C | inconclusive: 79.4 µM [inhibitor, partial curve, poor fit] | – |
